Assay results as given in US20240270821A1, “GIP/GLP1/GCG TRI-RECEPTOR AGONISTS AND USES THEREOF” (priority 2023, published 2024).
Like-named read-outs stand apart in the source and are kept apart here. At least one peptide structure holds a part that was inferred or is arguable (an end, a ring closure or a residue). At least one compound was matched to its structure with a doubt left. Starred links: 1 amine or outer side, 2 acyl side, 3 side chain; linkers in the order of their positions; H or OH if unused. Non-standard residues stand in square brackets, D forms with d. Groups on a side chain read outwards from the residue. No end group written: not given here. *: point of attachment. C20 diacid = O=C(O)CCCCCCCCCCCCCCCCCCC(=O)*; C18 diacid = O=C(O)CCCCCCCCCCCCCCCCC(=O)*; αMePhe(2-F) = C[C@](N)(Cc1ccccc1F)C(=O)O; γGlu = O=C(O)[C@H](CCC(=O)[*:2])N[*:1]; αMe4Pal = C[C@](N)(Cc1ccncc1)C(=O)O; αMeY = C[C@](N)(Cc1ccc(O)cc1)C(=O)O; 4Pal = N[C@@H](Cc1ccncc1)C(=O)O; αMeL = CC(C)C[C@](C)(N)C(=O)O; αMeS = C[C@](N)(CO)C(=O)O; Orn = NCCC[C@H](N)C(=O)O; AEEA = NCCOCCOCC(=O)O; Aib = CC(C)(N)C(=O)O

What was measured:
Assay type in all cases: cell-based
hGLP-1R [1] = molecular target: T1, hGLP-1R (Homo sapiens, UniProt P43220); assay: Functional cAMP activation in the presence of 0.1% casein (no HSA)
T1 sequence (P43220 24-463): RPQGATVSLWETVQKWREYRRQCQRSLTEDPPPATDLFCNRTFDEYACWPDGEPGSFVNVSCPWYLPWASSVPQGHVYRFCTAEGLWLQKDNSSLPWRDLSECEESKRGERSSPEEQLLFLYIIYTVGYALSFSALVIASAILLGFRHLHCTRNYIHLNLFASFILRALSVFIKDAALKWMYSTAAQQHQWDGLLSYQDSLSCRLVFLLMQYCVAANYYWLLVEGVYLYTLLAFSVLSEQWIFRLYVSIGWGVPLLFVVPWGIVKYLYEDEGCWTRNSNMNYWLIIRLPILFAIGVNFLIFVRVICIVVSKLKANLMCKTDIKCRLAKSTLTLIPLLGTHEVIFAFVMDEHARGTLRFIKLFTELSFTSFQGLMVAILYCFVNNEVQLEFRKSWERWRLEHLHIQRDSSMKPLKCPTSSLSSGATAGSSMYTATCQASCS

hGLP-1R [2] = molecular target: T1, hGLP-1R; assay: Functional cAMP activity in the presence of 1% HSA; conditions: geometric mean of relative EC50, read-out: cAMP Rel EC50, hGLP-1R
human GcgR = human GcgR (Homo sapiens, UniProt P47871); assay: Functional cAMP activity in the presence of 1% HSA; conditions: geometric mean of relative EC50, read-out: cAMP Rel EC50, hGcgR
Chain of human GcgR (P47871 26-477): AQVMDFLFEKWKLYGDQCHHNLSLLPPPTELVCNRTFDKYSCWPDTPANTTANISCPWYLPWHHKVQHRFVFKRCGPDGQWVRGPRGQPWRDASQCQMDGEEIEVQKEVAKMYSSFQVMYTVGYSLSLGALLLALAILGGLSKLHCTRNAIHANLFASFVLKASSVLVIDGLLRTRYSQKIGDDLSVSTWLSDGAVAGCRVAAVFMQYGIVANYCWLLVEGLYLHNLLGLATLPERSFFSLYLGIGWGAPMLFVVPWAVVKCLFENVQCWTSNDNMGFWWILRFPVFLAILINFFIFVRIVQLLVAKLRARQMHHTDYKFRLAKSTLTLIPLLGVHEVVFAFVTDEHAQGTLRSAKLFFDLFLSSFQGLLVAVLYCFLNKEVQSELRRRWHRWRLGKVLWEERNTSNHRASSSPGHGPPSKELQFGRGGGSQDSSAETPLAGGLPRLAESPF

hGIPR [3] = molecular target: T2, hGIPR (Homo sapiens, UniProt P48546); assay: Functional cAMP activity in the presence of 1% HSA; conditions: geometric mean of relative EC50, read-out: cAMP Rel EC50, hGIPR
T2 sequence (P48546 22-466): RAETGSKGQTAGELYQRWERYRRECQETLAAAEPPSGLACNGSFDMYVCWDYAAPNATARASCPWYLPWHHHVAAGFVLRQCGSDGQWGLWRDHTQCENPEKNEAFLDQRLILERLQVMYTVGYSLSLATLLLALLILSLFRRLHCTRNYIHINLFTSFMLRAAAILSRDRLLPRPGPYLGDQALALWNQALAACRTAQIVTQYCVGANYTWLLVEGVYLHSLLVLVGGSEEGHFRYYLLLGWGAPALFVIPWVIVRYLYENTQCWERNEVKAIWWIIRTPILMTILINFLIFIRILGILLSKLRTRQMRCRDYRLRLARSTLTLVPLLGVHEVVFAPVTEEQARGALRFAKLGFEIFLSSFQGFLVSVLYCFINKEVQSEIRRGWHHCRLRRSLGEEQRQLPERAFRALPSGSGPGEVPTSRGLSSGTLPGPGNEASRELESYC

hGcgR = hGcgR (Homo sapiens, UniProt P47871); assay: Functional cAMP activation in the presence of 0.1% casein (no HSA)
Chain of hGcgR (P47871 26-477): as the sequence (P47871 26-477) above

hGIPR [4] = molecular target: T2, hGIPR; assay: as above
[5] = in the presence of 0.1% casein (no HSA), geometric mean, read-out: Relative cAMP EC50, hGLP-1R
[6] = HEK-293 clonal cell line, in the presence of 1% HSA
[7] = in the presence of 0.1% casein (no HSA), geometric mean, read-out: Relative cAMP EC50, hGcgR
[8] = in the presence of 0.1% casein (no HSA), geometric mean, read-out: Relative cAMP EC50, hGIPR
[9] = HEK-293 clonal cells expressing hGLP-1R, in the presence of 1% HSA
[10] = HEK-293 clonal cells expressing hGcgR, in the presence of 1% HSA
[11] = HEK-293 clonal cells expressing hGIPR, in the presence of 1% HSA
[12] = in the presence of 0.1% casein (no HSA), geometric mean of relative EC50
[13] = HEK-293 clonal cell line, 1% HSA
[14] = 0.1% casein, no HSA, geometric mean, read-out: Relative cAMP EC50, hGLP-1R
[15] = HEK-293 cells expressing hGLP-1R, 1% HSA
[16] = HEK-293 cells expressing hGcgR, 1% HSA
[17] = HEK-293 cells expressing hGIPR, 1% HSA
[18] = 0.1% casein, no HSA, geometric mean, read-out: Relative cAMP EC50, hGcgR
[19] = 0.1% casein, no HSA, geometric mean, read-out: Relative cAMP EC50, hGIPR

Substance	EC50 (hGLP-1R [1]; [5]) [nM]	EC50 (hGcgR; [7]) [nM]	EC50 (hGIPR [4]; [8]) [nM]	EC50 (hGLP-1R [1]; [12]) [nM]	EC50 (hGLP-1R [2]; [13]) [nM]	EC50 (human GcgR; [13]) [nM]	EC50 (hGIPR [3]; [13]) [nM]	EC50 (hGcgR; [12]) [nM]	EC50 (hGIPR [4]; [12]) [nM]	also measured
H-Y[Aib]QGTFTSD[4Pal]SQ[αMeL]LD[Orn]K([γGlu-γGlu-C18 diacid])AQ[αMe4Pal]AFIEYLIAGGPSSGEPPPSGSGE [Example 978]	1.6	8.91	0.284							EC50 (hGLP-1R [2]; [6]): 174 nM; EC50 (human GcgR; [6]): 824 nM; EC50 (hGIPR [3]; [6]): 33.9 nM
H-Y[Aib]QGT[αMePhe(2-F)]TSDYSILLDKQAAK([AEEA-γGlu-C18 diacid])AFIEYLIEGGPSSGEPPPSEG-NH2 [Example 331]	0.663	1.66	0.148							EC50 (hGLP-1R [2]; [9]): 207 nM; EC50 (human GcgR; [10]): 339 nM; EC50 (hGIPR [3]; [11]): 47.5 nM
H-Y[Aib]QGT[αMePhe(2-F)]TSDYSKILDKIAQK([AEEA-γGlu-C20 diacid])AFIEYLIEGGPSSGEPPPSEG-NH2 [Example 355]	1.01	5.87	0.0811							EC50 (hGLP-1R [2]; [9]): 351 nM; EC50 (human GcgR; [10]): 3430 nM; EC50 (hGIPR [3]; [11]): 33.2 nM
H-Y[Aib]QGT[αMePhe(2-F)]TSD[4Pal]SILLDKK([γGlu-γGlu-C18 diacid])AQ[Aib]AFIEYLAEGGPSSGEPPPSGSEE-NH2 [Example 631]				0.658	55	1250	3.92	16.8	0.0375	
H-Y[Aib]QGT[αMePhe(2-F)]TSD[4Pal]SILLDKK([γGlu-γGlu-C18 diacid])AQ[Aib][Orn]FIEYLQEGGPSSGEPPPSGSEE-NH2 [Example 639]				0.374	27.9	750	2.04	8	0.0231	
H-Y[Aib]QGT[αMePhe(2-F)]TSD[4Pal]SI[αMeL]LD[Orn]K([AEEA-γGlu-C18 diacid])AQ[αMe4Pal][Orn]FI[dE][αMeY]LIEGGPSSGEPPPEGT-NH2 [Example 507]				0.187	21.3	209	1.12	1.86	0.0127	
H-Y[Aib]QGT[αMePhe(2-F)]TSD[4Pal]SI[αMeL]LD[Orn]K([AEEA-γGlu-C18 diacid])AQ[αMe4Pal][Orn]FI[dE][αMeY]LIEGGPSSGEPPPESEEE-NH2 [Example 754]				0.222	33.3	381	1.94	2.3	0.0102	
H-Y[Aib]QGT[αMePhe(2-F)]TSD[4Pal][αMeS]I[αMeL]LD[Orn]K([AEEA-γGlu-C18 diacid])AQ[Aib][Orn]FI[dE]YLIEGGPSSGEPPPSGT [Example 502]				0.326	30.6	395	2.42	3.8	0.0337	
H-Y[Aib]QGT[αMePhe(2-F)]TSD[4Pal][αMeS]I[αMeL]LD[Orn]K([AEEA-γGlu-C18 diacid])AQ[Aib][Orn]FI[dE]YLIEGGPSSGEPPPSGTEE [Example 537]				0.538	46.9	454	4.48	5.9	0.0641	
H-Y[Aib]QGT[αMePhe(2-F)]TSD[4Pal][αMeS]I[αMeL]LD[Orn]K([AEEA-γGlu-C18 diacid])AQ[αMe4Pal]EFI[dE][αMeY]LIEGGPSS[Aib]EPPPEGE-NH2 [Example 1192]										EC50 (hGLP-1R [1]; [14]): 0.499 nM; EC50 (hGLP-1R [2]; [15]): 59.5 nM; EC50 (human GcgR; [16]): 218 nM; EC50 (hGIPR [3]; [17]): 1.06 nM; EC50 (hGcgR; [18]): 1.54 nM; EC50 (hGIPR [4]; [19]): 0.00924 nM
H-Y[Aib]QGT[αMePhe(2-F)]TSD[4Pal][αMeS]I[αMeL]LD[Orn]K([γGlu-γGlu-C18 diacid])AQ[Aib][Orn]FI[dE]YLIEGGPSSGEPPPSGTE-OH [Example 522]				0.51	35.5	441	1.95	6.32	0.033	
H-Y[Aib]QGT[αMePhe(2-F)]TSD[4Pal][αMeS]I[αMeL]LD[Orn]K([γGlu-γGlu-C18 diacid])AQ[Aib][Orn]FI[dE]YLIEGGPSSGEPPPSGTEE [Example 539]				0.521	33.8	461	1.63	4.97	0.0247	
H-Y[Aib]QGT[αMePhe(2-F)]TSD[4Pal][αMeS]I[αMeL]LD[Orn]K([γGlu-γGlu-C18 diacid])AQ[Aib][Orn]FI[dE]YLIEGGPSSGEPPPSGTGE-OH [Example 524]				0.487	32.7	464	1.46	5.11	0.0266	
H-Y[Aib]QGT[αMePhe(2-F)]TSD[4Pal][αMeS]I[αMeL]LD[Orn]K([γGlu-γGlu-C18 diacid])AQ[Aib][Orn]FI[dE][αMeY]LSEGGPSSGEPPPSGTE [Example 519]				1.04	66.5	356	10.8	4.71	0.212	
H-Y[Aib]QGT[αMePhe(2-F)]TSD[4Pal][αMeS]I[αMeL]LD[Orn]K([γGlu-γGlu-C18 diacid])AQ[Aib][Orn]FI[dE][αMeY]LSEGGPSSGEPPPSGTGE-OH [Example 520]				1.04	60.6	407	9.09	6.09	0.224	
H-Y[Aib]QGT[αMePhe(2-F)]TSD[4Pal][αMeS]I[αMeL]LD[Orn]K([γGlu-γGlu-C18 diacid])AQ[αMe4Pal]EFI[dE][αMeY]LIEGGPPS[Aib][Orn]PPP[Orn]GGGE-NH2 [Example 1229]										EC50 (hGLP-1R [1]; [14]): 0.408 nM; EC50 (hGLP-1R [2]; [15]): 37.7 nM; EC50 (human GcgR; [16]): 175 nM; EC50 (hGIPR [3]; [17]): 0.504 nM; EC50 (hGcgR; [18]): 2.47 nM; EC50 (hGIPR [4]; [19]): 0.0065 nM
Y[Aib]QGTFTSD[4Pal]SQ[αMeL]LD[Orn]K([dE-γGlu-C18 diacid])AQ[αMe4Pal]AFIEYLIQ[Aib]GPSSGEPPPSGSEE-NH2 [Example 1102]	2.18	4.37	0.0418							EC50 (hGLP-1R [2]; [6]): 295 nM; EC50 (human GcgR; [6]): 516 nM; EC50 (hGIPR [3]; [6]): 5.12 nM
Y[Aib]QGTFTSD[4Pal]SQ[αMeL]LD[Orn]K([dE-γGlu-C18 diacid])AQ[αMe4Pal]AFIE[αMeY]LIA[Aib]GPSSGEPPPSGSEE-NH2 [Example 1105]	0.875	10.7	0.0427							EC50 (hGLP-1R [2]; [6]): 92.5 nM; EC50 (human GcgR; [6]): 1260 nM; EC50 (hGIPR [3]; [6]): 5.59 nM
Y[Aib]QGTFTSD[4Pal]SQ[αMeL]LD[Orn]K([dE-γGlu-C18 diacid])AQ[αMe4Pal]AFIQ[αMeY]LIE[Aib]GPSSGEPPPSGGGE-NH2 [Example 1131]	0.483	8.42	0.0472							EC50 (hGLP-1R [2]; [6]): 63.7 nM; EC50 (human GcgR; [6]): 1140 nM; EC50 (hGIPR [3]; [6]): 5.47 nM
Y[Aib]QGTFTSD[4Pal]SQ[αMeL]LD[Orn]K([dE-γGlu-C18 diacid])AQ[αMe4Pal]QFIE[αMeY]LIE[Aib]GPSSGEPPPSGSEE-NH2 [Example 1104]	1.7	11.1	0.09							EC50 (hGLP-1R [2]; [6]): 272 nM; EC50 (human GcgR; [6]): 1470 nM; EC50 (hGIPR [3]; [6]): 13.9 nM
Y[Aib]QGTFTSD[4Pal][αMeS]Q[αMeL]LD[Orn]K([dE-γGlu-C18 diacid])AQ[αMe4Pal]QFIE[αMeY]LIE[Aib]GPSSGEPPPSGGGE-NH2 [Example 1184]	1.18	1.5	0.071							EC50 (hGLP-1R [2]; [6]): 179 nM; EC50 (human GcgR; [6]): 295 nM; EC50 (hGIPR [3]; [6]): 8.39 nM
